# Test results reported in article PMC4336329 (PLoS ONE, 2015).
# Among all 310,000 compounds or so, about 14,000 (4.5%) showed an effect of 50% or more. Effects have a minus sign here. This is one part of the list.
# Target: human ether-à-go-go-related gene (hERG) potassium channel (human, UniProt Q12809)
# Experiment: primary screen, population patch clamp on CHO cells stably expressing hERG
# 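Also: peak tail current of the secondary pulse compared with the same well before compound.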
# human ether-à-go-go-related gene (hERG) potassium channel, sequence (Q12809 whole entry, looked up): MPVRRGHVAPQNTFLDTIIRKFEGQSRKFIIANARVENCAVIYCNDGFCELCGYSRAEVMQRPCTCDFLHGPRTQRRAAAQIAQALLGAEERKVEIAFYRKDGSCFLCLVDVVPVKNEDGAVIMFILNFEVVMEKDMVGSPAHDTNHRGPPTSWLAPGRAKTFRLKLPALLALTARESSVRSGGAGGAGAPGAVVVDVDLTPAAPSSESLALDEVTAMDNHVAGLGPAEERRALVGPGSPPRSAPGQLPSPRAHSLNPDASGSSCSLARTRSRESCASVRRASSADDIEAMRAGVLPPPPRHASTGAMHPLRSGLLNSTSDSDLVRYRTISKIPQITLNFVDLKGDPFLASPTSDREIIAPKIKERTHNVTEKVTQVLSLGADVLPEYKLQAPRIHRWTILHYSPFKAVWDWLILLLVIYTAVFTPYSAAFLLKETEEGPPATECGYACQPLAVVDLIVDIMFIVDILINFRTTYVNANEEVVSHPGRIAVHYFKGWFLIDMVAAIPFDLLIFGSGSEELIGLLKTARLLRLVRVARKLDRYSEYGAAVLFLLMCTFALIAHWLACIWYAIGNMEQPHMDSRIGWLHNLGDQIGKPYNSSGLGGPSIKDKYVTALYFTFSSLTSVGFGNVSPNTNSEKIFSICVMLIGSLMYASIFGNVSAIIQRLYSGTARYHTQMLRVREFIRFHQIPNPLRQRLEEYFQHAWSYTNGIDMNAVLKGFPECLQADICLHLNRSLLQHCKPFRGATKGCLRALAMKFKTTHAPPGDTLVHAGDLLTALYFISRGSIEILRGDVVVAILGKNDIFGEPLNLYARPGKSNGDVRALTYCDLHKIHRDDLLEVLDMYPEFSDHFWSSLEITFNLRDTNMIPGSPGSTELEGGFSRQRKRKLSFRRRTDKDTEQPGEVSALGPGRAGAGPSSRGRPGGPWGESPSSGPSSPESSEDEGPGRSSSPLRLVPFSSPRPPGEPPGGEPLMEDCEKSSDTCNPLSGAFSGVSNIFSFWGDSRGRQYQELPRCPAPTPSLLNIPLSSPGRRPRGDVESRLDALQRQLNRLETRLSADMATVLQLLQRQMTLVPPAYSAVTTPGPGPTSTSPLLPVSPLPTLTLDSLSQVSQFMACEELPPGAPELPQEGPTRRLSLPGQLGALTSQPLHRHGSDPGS
row,SMILES,"hERG current change (%, negative = inhibition) at 10uM"
1,Cc1cccc(OCCCCNCc2ccccc2)c1.O=C(O)C(=O)O,-38.1%
2,CCN(CC)CCN(C(=O)c1ccc(C(C)=O)cc1)c1nc2ccc(Cl)cc2s1.Cl,-30.2%
3,COc1ccc(Cl)cc1NC(=O)C1CC(c2c(F)cccc2Cl)=NO1 (centres unmarked),4.38%
4,Cc1csc(NC(=O)c2cnc3ccccc3n2)n1,-19%
5,CCc1nnc(NC(=O)CSc2nccn2-c2cccc(C)c2C)s1,14.6%
6,Cc1ccc(NC(=O)C2=NNC(=O)CC2)cc1S(=O)(=O)Nc1ccc(SC(F)F)cc1,-15.9%
7,COc1ccc(CN2CCCC(C(=O)N3CCCCC3)C2)cc1.O=C(O)C(=O)O (centres unmarked),-8.21%
8,CCCC(=O)Nc1cc(=O)[nH]c2ncnn12,0.0505%
9,CCCn1c(C)cc(C(=O)CSc2nc3nc(C)cc(C)n3n2)c1C,6.97%
10,COc1ccc(C)cc1NC(=O)COC(=O)c1ccc([N+](=O)[O-])o1,10.1%
11,O=C(NCC1CCCN1S(=O)(=O)c1cccs1)c1c(F)cccc1F (centres unmarked),8.8%
12,CC(=O)N(CCC1(C(C)C)CCOC(C)(C)C1)C(C)c1cccs1 (centres unmarked),-2.41%
13,CC1(CC(=O)N/N=C/c2ccc(-c3ccc(C(=O)O)cc3)o2)OCCO1,-8.3%
14,CC(CO)Nc1nc(SCc2ccccc2)nc2sc3c(c12)CCC3 (centres unmarked),20.2%
15,Cc1ccc(C(C)NC(=S)NC2CCCCC2)cc1C (centres unmarked),9.55%
16,COc1ccc(C(=O)NCC(=O)OCc2ccccc2F)cc1,1.5%
17,Cc1cc(C)c(S(=O)(=O)N(CC(=O)N2CCOCC2)C2CCCCC2)c(C)c1,-21.9%
18,CCn1c(CN2CCN(c3ccc(Cl)cc3)CC2)nc2ccccc21,-55.3%
19,Cc1nn(CC(=O)N2CCOCC2)c(=O)c2c1sc1ccccc12,-24.7%
20,CCc1ccc(NC(=O)CCn2c(=O)oc3ccccc32)cc1,-10.1%
21,O=C(NNC(=O)C1CCC1)c1cccc(Cl)c1,-5.52%
22,O=C(Nc1nc2c(F)cc(F)cc2s1)C1COc2ccccc2O1 (centres unmarked),5.17%
23,COc1ccc(N(CC(=O)NCCSc2ccccc2)S(=O)(=O)c2ccccc2)cc1OC,-6.45%

row,SMILES,"hERG current change (%, negative = inhibition) at 10uM"
1,O=C(c1c[nH]c2ccc(F)cc2c1=O)N1CCCCCC1,4.09%
2,O=C(O)Cc1ccc(NCc2ccccc2Cl)cc1,-24.6%
3,CN(C)c1ccc(S(=O)(=O)N2CCCCC2)cc1NC(=O)CN1C(=O)NC2(CCCC2)C1=O,8.25%
4,Cc1ccc(C(=O)N/C(=C\c2cccs2)c2nc3ccccc3[nH]2)cc1,-15.5%
5,Cc1cccc(C(=O)N[C@H](C(=O)OCC(=O)NC(=O)c2cccn2C)C(C)C)c1,-7.08%
6,O=C(Nc1ccccc1)c1cc(S(=O)(=O)NCc2ccncc2)ccc1Cl,-41.5%
7,CCS(=O)(=O)N1CCC(C(=O)Oc2ccc(Cl)cc2)CC1,15.8%
8,O=C(Cc1cccc2ccccc12)NCC1CCCO1 (centres unmarked),-5.85%
9,N#Cc1cccc(OCC(=O)NC(=O)NCc2ccccc2)c1,-20.5%
10,COc1ccc(Cl)cc1NS(=O)(=O)N1CCOCC1,6.86%
11,COc1ccc(CNCCc2c[nH]c3ccccc23)cc1OC.O=C(O)C(=O)O,-28%
12,O=C(CCC(=O)Nc1ccccc1)NNC(=O)C(c1ccccc1)c1ccccc1,-0.585%
13,O=C(C1CCCCC1)N1CCN(c2ncccn2)CC1,-4.8%
14,COc1ccc(CCNC2CCC(c3ccccc3)CC2)cc1 (centres unmarked),-70.8%
15,COCCN(CCOC)C(=O)C1CCN(c2ccc(S(=O)(=O)N3CCOCC3)cc2[N+](=O)[O-])CC1,-35.5%
16,Cc1nc2nc(SCC(=O)NCc3ccco3)nn2c(C)c1Cc1ccccc1,-32%
17,Cc1cccc(-c2nc3ccccc3c(=O)[nH]2)c1,6.98%
18,CCOc1ccc(CC(=O)C2=C(N3CCOCC3)CC(C)(C)CC2=O)cc1OCC,9.02%
19,COc1cccc(N(C(=O)Cn2nnc(-c3cccs3)n2)C(C(=O)NC(C)C)c2ccc(C)o2)c1 (centres unmarked),6.36%
20,COCCNC(=O)CN(C)S(=O)(=O)c1ccc(Br)cc1,8.16%
21,C=CCn1c(O)c(C=NCCCn2ccnc2)c(=O)[nH]c1=O,-6.01%
22,O=C(/C=C/Nc1ccccc1OC(F)(F)F)C(F)(F)F,8.23%
23,COc1ccc(OC)c(S(=O)(=O)N2CCC(C(=O)N3CCCCCC3)CC2)c1,5.45%

row,SMILES,"hERG current change (%, negative = inhibition) at 10uM"
1,COc1ccc(NC(=O)N(CCCN(C)C)Cc2cc3cc(OC)ccc3[nH]c2=O)cc1,-38.5%
2,COc1cccc(N2CCN(S(=O)(=O)c3cc4c(cc3C)N(C)CCO4)CC2)c1,-7.15%
3,COc1ccc(C(=O)Nc2cc(C(C)=O)c(C)oc2=O)cc1,20.9%
4,COc1ccc(C(=O)n2nc(-c3ccco3)nc2N)cc1,-2.65%
5,CCOC(=O)c1ccc(NC(=O)c2c(Cl)cc(C)nc2C)cc1.Cl,-5.79%
6,Cc1c(/C=N/Nc2ccc(F)cc2)c(O)n(C)c(=O)c1C#N,14.6%
7,COC(=O)c1cn(NC(=O)c2cccnc2)c(=O)c2ccccc12,17.2%
8,CN1/C(=C\C(=O)c2cccs2)C(C)(C)c2ccccc21,-8.57%
9,N=C1C(c2nc(-c3cccc([N+](=O)[O-])c3)cs2)=C(O)CN1NC(=O)c1ccco1,15.3%
10,CNc1nc(Cl)nc(Nc2ccccc2)n1,25.6%
11,CN(Cc1ccccn1)Cc1cn(Cc2ccccc2)nc1-c1ccc2c(c1)OCO2,-20.6%
12,CCCN1CCC(=O)N([C@H](CSc2ccc(OC)cc2)Cc2ccccc2)CC1,-70.5%
13,CCCCNC(=O)CCn1nc(-c2ccc(Cl)cc2)ccc1=O,-23.4%
14,O=C(NC1CCCCC1)Oc1cccc2ccccc12,14.9%
15,N/C(=N\OC(=O)c1ccc2c(c1)OCO2)c1cccc(Br)c1,15.6%
16,O=C(NC1CCCCCCC1)c1cccnc1,2.56%
17,CC1CCc2nn(CC(=O)NC3CCCC(C)C3C)cc2C1 (centres unmarked),0.882%
18,O=C(CSc1nc2ncc(Cl)cc2[nH]1)NCCc1ccc(F)cc1,5.69%
19,CCOC(=O)c1cc(CC)sc1/N=C/C1C(=O)CCCC1=O,10.9%
20,O=C(O)c1cc(NC(=O)C2CCCO2)cc(NC(=O)C2CCCO2)c1 (centres unmarked),4.52%
21,O=C(CC1C(=O)NCCN1C(=O)c1ccc([N+](=O)[O-])cc1)Nc1cccc(Cl)c1 (centres unmarked),-40.4%
22,COc1ccc(C2NC(=O)CS2)cc1 (centres unmarked),-13.2%
23,N#C/C(=C/c1ccco1)C(N)=S,14.7%

row,SMILES,"hERG current change (%, negative = inhibition) at 10uM"
1,O=C(/C=C\NCC(=O)c1ccccc1)c1ccc2ccccc2c1,-2.39%
2,O=C1C(Cc2ccc(F)cc2)SC(=Nc2ccccc2)N1c1ccccc1 (centres unmarked),-0.735%
3,Oc1ccccc1C1=Nc2nc3ccccc3n2C(c2ccccc2)C1 (centres unmarked),1.84%
4,O=C(O)CCNC(=O)OCC1c2ccccc2-c2ccccc21,-6.49%
5,COc1ccc(CNC(=O)CCNS(=O)(=O)c2ccc(Cl)cc2)cc1,-15.3%
6,CC1=CC2=NC(=O)/C(=C\c3ccc(-c4cccc(Cl)c4)o3)C(=N)N2O1,1.57%
7,Cc1cc(NC(=S)NC(=O)c2ccccc2)ccc1-c1cc2ccccc2oc1=O,7.22%
8,O=C(CSc1nnc(NC(=O)c2ccc(F)cc2F)s1)NC1CCCC1,17.7%
9,CN(CC(=O)Nc1ccc(F)cc1)C(=O)CCc1nc2sc3c(c2c(=O)[nH]1)CCCC3,-19.2%
10,O=C(COC(=O)c1ccc(O)cc1)Nc1ncc(Cl)cc1Cl,-4.31%
11,Cc1ccc(NC(=O)c2ccc3nccnc3c2)c(C)c1,-2.58%
12,CS(=O)(=O)N1CCC(C(=O)Nc2cc(C(F)(F)F)ccc2Cl)CC1,-6.72%
13,CC(=O)Nc1cccc(NC(=O)CSc2n[nH]c(-c3ccccc3)n2)c1,10.6%
14,Cn1c(=O)c2c(SCC(=O)N3CCCc4ccccc43)nc(C3CC3)nc2n(C)c1=O,-6.42%
15,CCOC(=O)C1Nc2c(cc(C(F)(F)F)cc2[N+](=O)[O-])C2c3ccccc3CC12 (centres unmarked),2.2%
16,Cc1ccc(NC(=S)NCC2CCCO2)cc1 (centres unmarked),-21%
17,C#Cc1ccc([C@H]2C=C(C(=O)Nc3ccccc3)O[C@@H](OCc3ccc(CO)cc3)C2)cc1,6.29%
18,Cc1cc(C(=O)COC(=O)C2=NNC(=O)CC2)c(C)n1-c1ccccc1,-7.67%
19,Cc1cc(C)cc(NC(=O)c2cccc3c2C(=O)N(C2CCCCC2)C3)c1,9.7%
20,CC(C)C1CCN(C(=O)C2CCC(=O)N(CCc3ccc(Cl)cc3)C2)CC1 (centres unmarked),-52.6%
